In the supplement of paper PMC4604168 (melanoma cell lines):
The other results are listed elsewhere or left out. Many values rest on one well or one pass, so single values are uncertain.

How the values were obtained:
Experiment in all cases: cell count relative to DMSO control; melanoma cells; higher = more viable cells
Conditions in all cases: library dose: low library concentration; 72 h
WM115 = test system: WM115
WM1716 = test system: WM1716
WM1745 = test system: WM1745
WM3526 = test system: WM3526
WM3619 = test system: WM3619
WM451Lu = test system: WM451Lu
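Further: cell number obtained by counting DAPI-stained nuclei in high-throughput microscope images with image analysis software, screen run in 1,536-well plates.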

Row | SMILES | cell count (WM115) [%] | cell count (WM1716) [%] | cell count (WM1745) [%] | cell count (WM3526) [%] | cell count (WM3619) [%] | cell count (WM451Lu) [%]
1 | NC(=O)c1ccc(N(C(N)=O)c2c(F)cccc2F)nc1-c1ccc(F)cc1F + C=CCNC1=C2C[C@@H](C)C[C@H](OC)[C@H](O)[C@@H](C)/C=C(\C)[C@H](OC(N)=O)[C@@H](OC)/C=C\C=C(/C)C(=O)NC(=CC1=O)C2=O [Tanespimycin] (first compound 0.4 µM, partner dose 0.002 µM) | 90.5 | 88.3 | 87.2 | 94.3 | 117 | 93.8
2 | CCCCCCCCc1ccc(CCC(N)(CO)CO)cc1 [fingolimod] + NC(=O)Nc1cc(-c2cccc(F)c2)sc1C(=O)N[C@H]1CCCNC1 [AZD7762] (first compound 2 µM, partner dose 0.02 µM) | 74.1 | 70.9 | 65.6 | 72.9 | 38.4 | 133
3 | CN(NC(=O)CC(=O)NN(C)C(=S)c1ccccc1)C(=S)c1ccccc1 + O=C1NC(=O)/C(=C/c2ccc(-c3ccc(F)cc3O)o2)S1 [AS252424] (first compound 0.006 µM, partner dose 1 µM) | 81.6 | 95.4 | 89.5 | 95.4 | 105 | 112
4 | CC(C)(C)c1cnc(CSc2cnc(NC(=O)C3CCNCC3)s2)o1 + Cc1cc([N+](=O)[O-])ccc1NS(=O)(=O)c1cc(Cl)ccc1Cl [FH535] (first compound 0.01 µM, partner dose 1 µM) | 87.7 | 86.6 | 94.9 | 77.2 | 98.5 | 100
5 | NC(=O)c1ccc(N(C(N)=O)c2c(F)cccc2F)nc1-c1ccc(F)cc1F + OCc1c[nH]c2ccccc12 [Indole-3-carbinol] (first compound 0.4 µM, partner dose 0.8 µM) | 85.1 | 86.6 | 92.6 | 101 | 94.9 | 96.3
